This sample is rich in variants without activity.
B1: TPR 5TU (parent)
chain: GGAUCUUCUCGAUCUAACAAAAAAGACAAAUCUGCCACAAAGCUUGAGAGCAUCUUCGGAUGCAGAGGCGGCAGCCUUCGGUGGCGCGAUAGCGCCAACGUUCUCAACUAUGACACGCAAAACGCGUGCUCCGUUGAAUGGAGUUUAUCAUG

Variants of: B1
Test: polymerase ribozyme fitness, log enrichment relative to wild type (log ratio); higher = more active; in vitro selection for triplet polymerase activity
Outline: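 Fitness compares each genotype's enrichment to that of the wild type on a logarithmic scale, averaging replicates with inverse-variance weights. The logarithm is base 2. Enrichment came from Illumina sequencing of input and output libraries after one triplicate round of in vitro selection, which included frozen incubation at −7 °C, of PCR-built, transcribed mutant libraries of each subunit of a heterodimeric triplet polymerase ribozyme. Only genotypes with ≥10 input reads and ≥1 read per output were kept.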

GGAUCUUCUCGAGCUAACAAAAAAGACACAUCUGCCACAAAGCUUGAGAGCAACUUCGGAUGCAGAGGCGGCAGCCUUCGGUGGCGCGAUAGCGCCAACGUUCUCAACUAUGACACGCAAAACGCGUGCUCCGUUGAAUGGAGUUUAUCAUG [U13G A29C U53A] and GGAUCUUCUCGAGCUAACAAAAAAGACAAAUCUGCCACUAAGCUUGAGAGCAUCUUCGGAUGCAUAGGCGGCAGCCUUCGGUGGCGCGAUAGCACCAACGUUCUCAACUAUGAGACGCAAAAUGCGUGCUCCGUCCAAUGGAGUUUAUCAUG [U13G A39U G65U G94A C114G C123U U135C G136C] cannot be ordered by “polymerase ribozyme fitness (log ratio)” value: no more than -4.2 for the first, no more than -4.2 for the second.

GGAUCUUCUCGAGCUAACAAAAAAGACAAAUCUGCCACUAAGCUUGAGAGCAUCUUCGGAUGCAGAGGCGGCAGCCUUCGGUGGCCCGAUAGCGUCAACGUUCUCAACUAUGACACGUAAAACGCGUGCUCCGUUGAAUGGAGUUUAUCAUG [U13G A39U G86C C95U C118U] and GGAUCUUCUCGAGCUAACAAAAAAGACAAAUCUGCCACACAGCUUGAGAGCAUCUUAGGAUGCAGAGGCGGCAGCCUUCGGUGGCGCGAUAGCGCCAACGUUCUCAACUAUGACACGCAAAACGAGUGCUCCGUUGAAUGGUGUUCAACAUG [U13G A40C C57A C125A A142U U146C U148A] cannot be ordered by “polymerase ribozyme fitness (log ratio)” value: no more than -4.2 for the first, no more than -4.2 for the second.

GGAUCUUCUCGAGCUAACAAAAAAGACAAAUCUGCCACAUAGCUUGAGCGCAUCUUCGGAUGCAUAGGCGGCAGCCUUCGGUGGCGCGAUAGCGCCAACGUUGUCAACUAUGACACUCAAAACGCGUGCUCCGUUGAAUGGAGUGUAUCAUG [U13G A40U A49C G65U C103G G117U U145G] and GGAUCUUCUCGAGCUAACAAAAAAGACAAAUCUGCCACAUAGCUUGAGAGCAUCUUCGGCUGCAGAGGCGGCAGCCUUCGGUGGCGCGAUAGCGCCAACGUUCUCAACUAUGACACGCAAAACGCGUGCUCCGUUGAAUGGAGUUUAUCAUG [U13G A40U A60C] cannot be ordered by “polymerase ribozyme fitness (log ratio)” value: no more than -4.2 for the first, no more than -4.2 for the second.

GGAUCUUCUCGAGCUAACAAAAAAGACAAAUCUGCCACAAUGUUUGAGAGCAUCUUCGGAUGCAGAGGCGGCAGGCUUCCGUGGCGCGAUAGCGCCAACGCUAUCAACUAUGACAAGCAACACGCGUGCUCCGUUGAAUGGAGUUUAUCAUG [U13G A41U C43U C75G G80C U101C C103A C116A A121C] and GGAUCUUCUCGAGCUAACAAAAAAGACAAAUCUGCCACAAAGCUUGCGAGCAUCUUCGGAUGCAGAGGCGGCAGCCUUCGGUGGCGCCAUUGCGCCAACGUUCUUAACUAUGACACGCAAAACGCGUGCUCCGUUGAAUGGAGUUUAUCAUG [U13G A47C G88C A91U C105U] cannot be ordered by “polymerase ribozyme fitness (log ratio)” value: no more than -4.2 for the first, no more than -4.2 for the second.

GGAUCUUCUCGAGCUAACAAAAAAGACAAAUCUGCCACAAAGCUUGGGAGCAUUUUCGGAUGCAGAGGCGGCAGGCUUCGGUGGAGCGAUAGCGCCAACGUUCUCAACUAUGACACACAAAACGCGUGCUCCGUUGAAUGCAGGUUAUUAUG [U13G A47G C54U C75G C85A G117A G141C U144G C149U] and GGAUCUUCUCGAGCUAACAAAAAAGACAAAUCUGCCACAAAGCUUGUGUGCAUCUUCGGAUGCAGAGGCGGCAGCCUUCGGUGGCGGGAUAGCGCCAACGCUCUCAACUAUGACACGCAAAACGCGUGCUCCGUUGAAUGGAGUUUAUCAUG [U13G A47U A49U C87G U101C] cannot be ordered by “polymerase ribozyme fitness (log ratio)” value: no more than -4.2 for the first, no more than -4.2 for the second.

Compared with GGAUCUUCUCGAGCUAACAAAAAAGACAAAUCUGCCACAAAGCUUGAGUGCAUCUUCGGAUGCAGAGGCGGCAGCCUUCGGUGGCGCGAUAGCGCCAACGUUCUCAACUAUGACACGCAAAACGCGUGCUCCGUUGAAUGGAGUUUAUCAUG [U13G A49U], GGAUCUUCUCGAGCUAACAAAAAAGACAAAUCUGCCACAAAGCUUGAGAGCAUCUUCGGCUGCAGAGGCGGCAGCCUUCCGUGGCGCGAUAGCGCCAACGUUCUCAACUAUGACACGCAAAACGCUUGCUACGUUGAAUGGAGUUUAUCAUG [U13G A60C G80C G126U C131A] is lower in “polymerase ribozyme fitness (log ratio)” value: -2.21 for the first, no more than -4.2 for the second.

GGAUCUUCUCGAGCUAACAAAAAAGACAAAUCUGCCACAAAGCUUGAGAGCAUCUUCGGAUGCAGGGGCAGCAGCCUUCGGUGGCGCGAUAGCGCAAACGUUCUCAACUAUGACACGCAAAACGCGUGCUCCGUUGAAUGGAGUUUAUCAUG [U13G A66G G70A C96A] and GGAUCUUCUCGAGCUAACAAAAAAGACAAAUCUGCCACAAAGCUUGAGAGCAUCUUCGGAUGCAGAGGCGGCGGCCUUCGGUGGCGCGAUAGCGCCAACGUUCUCAACUAUGACACGCAAAACGCGUGCUCCGUUGAAUGCAGUUUAUCAUG [U13G A73G G141C] cannot be ordered by “polymerase ribozyme fitness (log ratio)” value: no more than -4.2 for the first, no more than -4.2 for the second.

GGAUCUUCUCGAGCUAACAAAAAAGACAAAUCUGCCACAAAGCUUGAGAGCAUCUUCGGAUGCAGAGGCGGCAGCCUUCGGUGGCGCGAUUGCGUCAACGUUCUCAGCUAUGACACGCAAAACGCGUGCUCCAUUGAAUGGAGUUUAUCAUG [U13G A91U C95U A107G G133A] and GGAUCUUCUCGAGCUAAGAAAAAAGACAAAUCUGCCGCAAAGCUUGAGAGCAUCUUAAGAAGCAGAGGCGGCAGCCUUCGGUAGCGUGAUAGCGCCCACGUUCUCAACUAUGACGCGCAAAACGCGUGCUCCGUUGAAUGGAGUUUAUCAUG [U13G C18G A37G C57A G58A U61A G83A C87U A97C A115G] cannot be ordered by “polymerase ribozyme fitness (log ratio)” value: no more than -4.2 for the first, no more than -4.2 for the second.

GGAUCUUCUCGAGCUAACAAAAAAGAAAAAUCUGCCACAAAGCUUGAGAGUAUCUUCGGAUGCAGAGGCGGCAGCCUUCGGUGGAGCGAUAGCGCGAACGUUCUCAACUAUGACACGCAAAACGCGUGCUCCGUUGAAUGGAGUUUAUCAUG [U13G C27A C51U C85A C96G] and GGAUCUUCUCGAGCUAACAAAAAAGAGAAAUCUGCCACAAAGCAUGAGAGCAUCUUCGGAUGCAGAGGCGGCAGCCUUCGGUGGCGCGAUAGCGCCAACGUUCUCUACUAUGACACGCAAAACGUGUGCUCCGUUGAAUGGAGUUUAUCAUG [U13G C27G U44A A106U C125U] cannot be ordered by “polymerase ribozyme fitness (log ratio)” value: no more than -4.2 for the first, no more than -4.2 for the second.

In the case of GGAUCUUCUCGAGCUAACAAAAAAGACAAAUCUGACACAAAGCUUGAGAGCCUCUUCGGAUGCAGAGGCGGCAGCCUUCGGUGGCGCGAUAGCGCCAACGUUCUCAACUAUGACACGCAAAACGCGUGCUCCGUUGAAUGGAGUUUAUCAUG [U13G C35A A52C], the “polymerase ribozyme fitness (log ratio)” value is reported as no more than -4.2.
